Results: PMC9911399, “Two distinct binding modes provide the RNA-binding protein RbFox with extraordinary sequence specificity”
Residue numbers refer to the chain shown, from its start. This is one part of the list.

T1: RBFOX1 RRM RbFoxmut (Fox-RRM*) (Homo sapiens, UniProt Q9NWB1 109-208, R118D;E147R;N151S;E152T)
T1 sequence: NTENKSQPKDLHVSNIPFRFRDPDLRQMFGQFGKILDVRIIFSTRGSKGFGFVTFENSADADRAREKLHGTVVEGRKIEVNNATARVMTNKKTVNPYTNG

B1: CUAGACU (DNA:RNA)
RNA: GGGAGACCGGAAUUCAGAUUGUCCCUAGACUUUAAAUCCCGUCGUAGCCACCA
DNA 1: CAATCTGAATTCCGGTCTCCC
DNA 2: TGGTGGCTACGACGGGATT
B2: GUCUUCA (DNA:RNA)
RNA: B1 RNA with C25G, A27C, G28U, A29U, U31A
DNA 1: CAATCTGAATTCCGGTCTCCC
DNA 2: TGGTGGCTACGACGGGATT
B3: GACGGGC (DNA:RNA)
RNA: B1 RNA with C25G, U26A, A27C, A29G, C30G, U31C
DNA 1: CAATCTGAATTCCGGTCTCCC
DNA 2: TGGTGGCTACGACGGGATT
B4: CCGCUUU (DNA:RNA)
RNA: B1 RNA with U26C, A27G, G28C, A29U, C30U
DNA 1: CAATCTGAATTCCGGTCTCCC
DNA 2: TGGTGGCTACGACGGGATT
B5: ACGGGUC (DNA:RNA)
RNA: B1 RNA with C25A, U26C, A27G, A29G, C30U, U31C
DNA 1: CAATCTGAATTCCGGTCTCCC
DNA 2: TGGTGGCTACGACGGGATT
B6: GGAGCCC (DNA:RNA)
RNA: B1 RNA with C25G, U26G, A29C, U31C
DNA 1: CAATCTGAATTCCGGTCTCCC
DNA 2: TGGTGGCTACGACGGGATT
B7: CCGACUC (DNA:RNA)
RNA: B1 RNA with U26C, A27G, G28A, A29C, C30U, U31C
DNA 1: CAATCTGAATTCCGGTCTCCC
DNA 2: TGGTGGCTACGACGGGATT
B8: UCACCCG (DNA:RNA)
RNA: B1 RNA with C25U, U26C, G28C, A29C, U31G
DNA 1: CAATCTGAATTCCGGTCTCCC
DNA 2: TGGTGGCTACGACGGGATT
B9: ACGCAGC (DNA:RNA)
RNA: B1 RNA with C25A, U26C, A27G, G28C, C30G, U31C
DNA 1: CAATCTGAATTCCGGTCTCCC
DNA 2: TGGTGGCTACGACGGGATT
B10: CAUGUUG (DNA:RNA)
RNA: B1 RNA with U26A, A27U, A29U, C30U, U31G
DNA 1: CAATCTGAATTCCGGTCTCCC
DNA 2: TGGTGGCTACGACGGGATT
B11: UUACAAG (DNA:RNA)
RNA: B1 RNA with C25U, G28C, C30A, U31G
DNA 1: CAATCTGAATTCCGGTCTCCC
DNA 2: TGGTGGCTACGACGGGATT
B12: CCAGGAC (DNA:RNA)
RNA: B1 RNA with U26C, A29G, C30A, U31C
DNA 1: CAATCTGAATTCCGGTCTCCC
DNA 2: TGGTGGCTACGACGGGATT
B13: GCUCUUA (DNA:RNA)
RNA: GGGAGACCGGAAUUCAGAUUGUCCGCUCUUAUUAAAUCCCGUCGUAGCCACCA
DNA 1: CAATCTGAATTCCGGTCTCCC
DNA 2: TGGTGGCTACGACGGGATT
B14: UAGAACA (DNA:RNA)
RNA: B1 RNA with C25U, U26A, A27G, G28A, U31A
DNA 1: CAATCTGAATTCCGGTCTCCC
DNA 2: TGGTGGCTACGACGGGATT
B15: UCCCCAU (DNA:RNA)
RNA: B13 RNA with G25U, U27C, U29C, U30A, A31U
DNA 1: CAATCTGAATTCCGGTCTCCC
DNA 2: TGGTGGCTACGACGGGATT
B16: CUCCGUG (DNA:RNA)
RNA: B1 RNA with A27C, G28C, A29G, C30U, U31G
DNA 1: CAATCTGAATTCCGGTCTCCC
DNA 2: TGGTGGCTACGACGGGATT
B17: AGCGUGC (DNA:RNA)
RNA: B1 RNA with C25A, U26G, A27C, A29U, C30G, U31C
DNA 1: CAATCTGAATTCCGGTCTCCC
DNA 2: TGGTGGCTACGACGGGATT
B18: UCCUCGU (DNA:RNA)
RNA: B1 RNA with C25U, U26C, A27C, G28U, A29C, C30G
DNA 1: CAATCTGAATTCCGGTCTCCC
DNA 2: TGGTGGCTACGACGGGATT
B19: CAAUAGU (DNA:RNA)
RNA: B1 RNA with U26A, G28U, C30G
DNA 1: CAATCTGAATTCCGGTCTCCC
DNA 2: TGGTGGCTACGACGGGATT
B20: GAUGUUA (DNA:RNA)
RNA: B13 RNA with C26A, C28G
DNA 1: CAATCTGAATTCCGGTCTCCC
DNA 2: TGGTGGCTACGACGGGATT
B21: UUCGGUA (DNA:RNA)
RNA: B1 RNA with C25U, A27C, A29G, C30U, U31A
DNA 1: CAATCTGAATTCCGGTCTCCC
DNA 2: TGGTGGCTACGACGGGATT
B22: GACGACA (DNA:RNA)
RNA: B1 RNA with C25G, U26A, A27C, U31A
DNA 1: CAATCTGAATTCCGGTCTCCC
DNA 2: TGGTGGCTACGACGGGATT
B23: CAUUUUG (DNA:RNA)
RNA: B13 RNA with G25C, C26A, C28U, A31G
DNA 1: CAATCTGAATTCCGGTCTCCC
DNA 2: TGGTGGCTACGACGGGATT
B24: GCCCCCA (DNA:RNA)
RNA: B13 RNA with U27C, U29C, U30C
DNA 1: CAATCTGAATTCCGGTCTCCC
DNA 2: TGGTGGCTACGACGGGATT
B25: UAAACGA (DNA:RNA)
RNA: B1 RNA with C25U, U26A, G28A, A29C, C30G, U31A
DNA 1: CAATCTGAATTCCGGTCTCCC
DNA 2: TGGTGGCTACGACGGGATT
B26: GUCGCGC (DNA:RNA)
RNA: B1 RNA with C25G, A27C, A29C, C30G, U31C
DNA 1: CAATCTGAATTCCGGTCTCCC
DNA 2: TGGTGGCTACGACGGGATT
B27: UUAUAUG (DNA:RNA)
RNA: B1 RNA with C25U, G28U, C30U, U31G
DNA 1: CAATCTGAATTCCGGTCTCCC
DNA 2: TGGTGGCTACGACGGGATT
B28: GCAGUCC (DNA:RNA)
RNA: B1 RNA with C25G, U26C, A29U, U31C
DNA 1: CAATCTGAATTCCGGTCTCCC
DNA 2: TGGTGGCTACGACGGGATT
B29: UCGCCCC (DNA:RNA)
RNA: B13 RNA with G25U, U27G, U29C, U30C, A31C
DNA 1: CAATCTGAATTCCGGTCTCCC
DNA 2: TGGTGGCTACGACGGGATT
B30: CCGAUUU (DNA:RNA)
RNA: B13 RNA with G25C, U27G, C28A, A31U
DNA 1: CAATCTGAATTCCGGTCTCCC
DNA 2: TGGTGGCTACGACGGGATT
B31: GAGUACU (DNA:RNA)
RNA: B1 RNA with C25G, U26A, A27G, G28U
DNA 1: CAATCTGAATTCCGGTCTCCC
DNA 2: TGGTGGCTACGACGGGATT

Target: T1, RBFOX1 RRM RbFoxmut (Fox-RRM*)
Assay: EMSA; HiTS-Eq, 1 nM pool, 10 min; buffer printed only for the single-RNA assays: 10 mM Tris pH 7.5, 150 mM NaCl, 3.4 mM EDTA, 0.001% NP-40, 30 C
Conditions: tags: His6 N-terminal (pET28a); label: 5' 32P
Outline: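 A pool of RNA with 7 randomized nucleotides, 5′-radiolabelled and with DNA-annealed flanks, was equilibrated at 1 nM for 10 min in 50 µL with purified RbFox RRM, wild type or mutant, across increasing protein concentrations. Free RNA was separated by 8% native PAGE, excised, reverse-transcribed, barcoded by PCR and sequenced. Relative association constants were obtained from read-count changes of each RNA species versus the control reaction and normalised to the cognate motif.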

| Binder | binding signal |
| --- | --- |
| B1 | 0.0561 KA relative to UGCAUGU |
| B2 | 0.203 KA relative to UGCAUGU |
| B3 | 0.0747 KA relative to UGCAUGU |
| B4 | 0.0941 KA relative to UGCAUGU |
| B5 | 0.153 KA relative to UGCAUGU |
| B6 | 0.0675 KA relative to UGCAUGU |
| B7 | 0.0824 KA relative to UGCAUGU |
| B8 | 0.104 KA relative to UGCAUGU |
| B9 | 0.0928 KA relative to UGCAUGU |
| B10 | 0.15 KA relative to UGCAUGU |
| B11 | 0.0498 KA relative to UGCAUGU |
| B12 | 0.0683 KA relative to UGCAUGU |
| B13 | 0.0731 KA relative to UGCAUGU |
| B14 | 0.0442 KA relative to UGCAUGU |
| B15 | 0.0866 KA relative to UGCAUGU |
| B16 | 0.105 KA relative to UGCAUGU |

| Binder | binding signal |
| --- | --- |
| B17 | 0.131 KA relative to UGCAUGU |
| B18 | 0.124 KA relative to UGCAUGU |
| B19 | 0.103 KA relative to UGCAUGU |
| B20 | 0.129 KA relative to UGCAUGU |
| B21 | 0.0815 KA relative to UGCAUGU |
| B22 | 0.0517 KA relative to UGCAUGU |
| B23 | 0.13 KA relative to UGCAUGU |
| B24 | 0.0573 KA relative to UGCAUGU |
| B25 | 0.036 KA relative to UGCAUGU |
| B26 | 0.123 KA relative to UGCAUGU |
| B27 | 0.148 KA relative to UGCAUGU |
| B28 | 0.0533 KA relative to UGCAUGU |
| B29 | 0.07 KA relative to UGCAUGU |
| B30 | 0.0707 KA relative to UGCAUGU |
| B31 | 0.0757 KA relative to UGCAUGU |
